This passage reports survival results from PubChem BioAssay AID463173 (ICCB-Longwood Screening Facility, Harvard Medical School, 2010).

The campaign covered roughly 52,000 compounds. About 1,700 (3.3%) were called active. No stated cut-off is given here; in the data, active means survival mostly below about 52% (no sharp cut-off); inactive means mostly above about 56%. The list shows a part of the results.

The assay deals with Wild type. Nature of the assay: growth inhibition of S. aureus wild type versus tarO mutant, primary screen, teichoic acid synthesis inhibitors, RN4220, OD600 (AID 463173). The note with it: S. aureus RN4220 wild type/DeltatarO growth, OD600, 18 h, active compounds read low, screened at 18.75 µg/mL (by protocol).
As for `CCCN(CCC)CCNC(=O)Cn1ncc2c([nH]c3ccc(C)cc32)c1=O`, the survival was inactive: 76%. For `CCOc1ccc2oc(=O)cc(CN3CCN(C(=O)c4cccc(F)c4)CC3)c2c1`, the survival was inactive: 56%. On to `CCc1cccc(-n2c(=O)c3cccnc3n2CC(=O)NCc2ccccc2Cl)c1`, for which the survival is inactive: 66%. Regarding `CCOC(=O)c1[nH]c(C)c(CCC(=O)NCc2ccc(C)cc2)c1C`, the survival is inactive: 70%. `CCOC(=O)c1ccc(NC(=O)CCc2c(C)n(CC)c3cc(-c4ccccc4OC)nn3c2=O)cc1`: the survival is inactive: 75%. `CCOCCCNC(=O)c1cc2c(=O)n3ccccc3nc2s1`: the survival was inactive: 79%.

With `COc1ccc(N2CCN(C(=O)c3ccc(NC(=O)c4nsc5ccccc45)cc3)CC2)cc1`, the survival is inactive: 56%.

In the case of `O=C(/C=C\c1ccc2c(c1)OCO2)NC1CC(=O)N(c2ccc(F)cc2)C1` (stereo not drawn), the survival is inactive: 69%. Then `Cc1ccc(C)c(N2CCN(C(=O)c3cc4cc5ccc(C)cc5nc4s3)CC2)c1`, with inactive: 92%; and `CC(C)(C)c1ccc(C(=O)Nc2cc(-c3ccccc3)nn2-c2ccccc2)cc1`, with inactive: 68%. Consider `CC1CCN(S(=O)(=O)c2cc(C(=O)NCCc3ccccc3)n(C)c2)CC1`, for which the survival is inactive: 113%. Turning to `Cc1ccc(CNc2nc3c(S(=O)(=O)c4ccc(C)c(C)c4)nnn3c3ccc(Cl)cc23)cc1`, the survival was inactive: 86%. Take `COc1cc(-c2nc3cc(Cl)ccc3o2)cc(OC)c1OC`: the survival is inactive: 109%. Then `Cc1ccc(CNC(=O)CCn2ccc3cc(S(=O)(=O)N4CCCC4)ccc32)cc1`, with inactive: 74%; and `O=C(CN1CCN(c2ccc(Cl)cc2)CC1)Nc1ccc(Cl)c(C(F)(F)F)c1`, with inactive: 87%.

In the case of `Cc1ccc(CSc2oc(-c3ccco3)nc2S(=O)(=O)c2ccc(Br)cc2)cc1`, the survival is inactive: 76%. `O=C(O)C1CC=CCC1C(=O)N(Cc1ccccc1)c1ccccc1` (stereo not drawn): the survival is inactive: 104%. Turning to `CC1CCN(C(=O)CSc2nc3c([nH]c4ccccc43)c(=O)n2-c2ccccc2)CC1`, the survival was inactive: 83%.

As for `COc1ccccc1NC(=O)CSc1nnc(-c2nonc2NC(C)=O)n1-c1ccccc1`, the survival is inactive: 84%. Turning to `CCOc1ccc(-n2c(=O)c3c4c(sc3n(Cc3cc(=O)n5cc(Cl)ccc5n3)c2=O)CCC4)cc1`, the survival is inactive: 83%. Consider `CCc1ccc(NC(=O)Cn2c(=O)n(Cc3nc(C)no3)c(=O)c3cc4c(cc32)OCO4)cc1`, for which the survival was inactive: 105%. Take `CN1CCN(C(=O)c2ccc(C(C)(C)C)cc2)CC1`: the survival was inactive: 108%.

On to `Cc1ccc(CN2CCC(CNC(=O)c3cnn(-c4ccccc4)c3C3CCN(C(=O)OC(C)(C)C)CC3)CC2)cc1`, for which the survival is inactive: 73%. With `CCc1cc(C(=O)OC)c(NC(=O)CC2SC(=NC)N(C)C2=O)s1` (stereo not drawn), the survival is inactive: 110%. For the molecule `COCCn1c(=O)[nH]c2cc(C(=O)N3CCN(c4ccc(Cl)cc4)CC3)ccc2c1=O`, the survival was inactive: 66%. Then `Cc1ccc2nc(NC(=O)c3nc(SCc4ccccc4F)ncc3Cl)sc2c1`, with inactive: 85%. Turning to `Cc1ccc2c(c1)C(=O)C(=O)N2Cc1ccc(OCCC(C)C)cc1`, the survival is inactive: 79%. `COc1ccc(NC(=O)c2oc3ccc(S(=O)(=O)N4CCCCC4)cc3c2C)cc1Cl`: the survival is inactive: 73%. The result for `COc1ccc(NC(=O)c2cc(C(C)=O)n3ccccc23)cc1` reads inactive: 77%; that for `COc1cc2c(=O)n(Cc3ccco3)c(=O)n(CC(=O)Nc3ccc(F)cc3)c2cc1OC`, inactive: 68%; that for `CCOc1cc2[nH]c(=O)n(Cc3ccc(C(=O)N4CCN(c5ccccc5)CC4)cc3)c(=O)c2cc1OCC`, inactive: 120%. On to `Cc1cnc(NC(=O)CSc2nc3sc4c(c3c(=O)n2C)CCCC4)s1`, for which the survival is inactive: 114%.

In the case of `CSc1ncc(Cl)c(C(=O)Nc2cc(C(F)(F)F)ccc2Cl)n1`, the survival is inactive: 88%.

`O=C(O)c1ccc(NCc2nc3ccccc3n2CCOc2ccccc2Cl)cc1`: the survival was inactive: 88%.

In the case of `O=C(CSc1nc(=O)n(Cc2cccnc2)c2c1CCC2)Nc1cccc(Cl)c1`, the survival was inactive: 84%.

Take `Cc1nc(-c2ccc(Cl)cc2)sc1CCNC(=O)C(=O)Nc1ccc2c(c1)OCCO2`: the survival was inactive: 66%.

With `COc1ccc(N(C)C(=O)c2nn(-c3ccc(C)cc3)c(=O)n(C)c2=O)c(OC)c1`, the survival is inactive: 84%.

In the case of `Cc1cc(C)cc(NC(=O)N2CCC(C(N)=O)(N3CCCCC3)CC2)c1`, the survival was inactive: 104%.

`CCOC(=O)N1CCC(NC(=O)c2cnn(-c3ccc(F)cc3)c2-n2cccc2)CC1`: the survival is inactive: 74%. `C=CCc1c(C)[nH]c2c(OC)cccc2c1=S`: the survival is inactive: 86%. `Cc1ccc(-c2nn(-c3ccc(F)cc3F)c3c2cnc2ccc(F)cc23)cc1`: the survival is inactive: 65%.

On to `CCN(CC)c1cc(C)c2cc(NC(=O)/C=C/c3ccccc3Cl)ccc2n1`, for which the survival is inactive: 76%. With `N#CCC(=O)N/N=C/c1ccc(OC2CSC2)cc1`, the survival is inactive: 113%.

`COc1ccc(N2CC(NC(=O)C(=O)c3c[nH]c4ccccc34)CC2=O)cc1` (stereo not drawn): the survival is inactive: 73%.

In the case of `COc1ccc(CNC(=O)CC(C)n2nc(C)cc2C)cc1` (stereo not drawn), the survival was inactive: 88%. Turning to `O=C(CCSCc1cccc(Cl)c1)NCc1ccccc1Cl`, the survival was inactive: 47%.

`CC(C)Oc1ccc(C(=O)N2CCN(c3nc4c(F)cc(F)cc4s3)CC2)cc1`: the survival was inactive: 120%.

With `O=c1c(N2CCN(c3ccccc3)CC2)csc2ccc(Cl)cc12`, the survival is inactive: 68%.

Take `O=C(CSc1ncc2c(n1)-c1cc(Cl)ccc1N(Cc1ccccc1)S2(=O)=O)Nc1ccc(F)cc1F`: the survival was inactive: 82%. Then `CCOCCn1ccc2c(OCC(=O)NCc3ccc(F)cc3)cccc2c1=O`, with inactive: 79%; and `CC1CCCN(c2ncnc3c2cnn3-c2ccc(F)cc2)C1` (stereo not drawn), with inactive: 55%; and `CCN1c2ccccc2-n2cccc2C12CCN(C(=O)Nc1ccccc1Br)CC2`, with inactive: 81%. Turning to `CCCCn1cc(S(=O)(=O)c2ccccc2)c(=O)c2cc(F)c(N3CCN(CCC)CC3)cc21`, the survival was inactive: 74%. As to `O=C(OCC(=O)N1CCN(c2ccccc2)CC1)c1ccccn1`, the survival is inactive: 107%. Then `COc1ccc(C2CC(=O)N(Cc3ccccc3C)c3c2c(C)nn3-c2nc(C)cc(C)n2)c(OC)c1` (stereo not drawn), with inactive: 80%; and `Cc1ccccc1-n1c(SCC(=O)Nc2ccc(Cl)cc2Cl)nc(O)cc1=O`, with inactive: 64%; and `CC(C)(C)c1ccc(-c2nc(SCCOc3ccc(Cl)cc3)n3[nH]c(=O)cc3n2)cc1`, with inactive: 118%. As to `COc1ccc(NC(=O)CSC2=Nc3ccccc3C3=NC(CC(=O)NCc4ccccc4OC)C(=O)N23)cc1Cl` (stereo not drawn), the survival is inactive: 74%. For the molecule `COc1ccc(-c2nc3c4ccccc4n(CC(=O)Nc4ccc(C(C)C)cc4)c(=O)n3n2)cc1`, the survival is inactive: 68%. The result for `CCc1sc(Nc2cccc(C)c2)nc1-c1cc2cccc(OC)c2oc1=O` reads inactive: 67%; that for `Cc1ccc(S(=O)(=O)N2CCc3cc(C(=O)N(C)Cc4ccccc4)ccc32)cc1`, inactive: 84%; that for `CC(=O)N1CCc2c(sc3c2c(=O)n(-c2ccc(F)cc2)c(=O)n3Cc2cc(C)ccc2C)C1`, inactive: 94%.

With `Cc1cccc(N(C)S(=O)(=O)c2ccc(-c3cc(C)no3)s2)c1`, the survival is inactive: 133%.

On to `CC(C)OC(=O)c1cc2c(ccn2C)n1CCC#N`, for which the survival was inactive: 111%.

With `COc1ccc(S(=O)(=O)c2c(O)c(C)cc(NS(=O)(=O)c3ccc(Cl)cc3)c2C(C)C)cc1`, the survival was inactive: 79%. In the case of `COc1ccc(-c2noc(-c3ccc(N4CCN(C)CC4)c([N+](=O)[O-])c3)n2)cc1`, the survival was inactive: 63%. For the molecule `CC(C)(C)c1cc(-c2ccccc2)n[nH]1`, the survival was inactive: 132%. The result for `COc1cccc(-n2c(=O)c3c(C)c(C(=O)N(C)C)sc3n(Cc3cccc(C)c3)c2=O)c1` reads active: 10%; that for `COc1cc(C(=O)N2CCN(CCc3ccncc3)CC2)cc(OC)c1OC`, inactive: 86%.

For `O=C(CC(=O)NN=C1CCCC1)NCc1ccccc1`, the survival is inactive: 108%. The result for `Cc1nc2ccccc2n1C(C)c1ccccc1` (stereo not drawn) reads inactive: 111%. As for `COc1ccccc1-n1nc(-c2ccccc2)c2cnc3c(F)cc(F)cc3c21`, the survival was inactive: 119%.

Turning to `COc1ccc(C(CNC(=O)COc2cc(C)cc(C)c2)N2CCCCC2)cc1` (stereo not drawn), the survival is inactive: 84%. For `COc1ccc(-c2nc(C)c(CCNC(=O)C(=O)Nc3ccccc3F)s2)cc1`, the survival was inactive: 111%. As for `Cc1ccc(NC(=O)Cn2c(=O)n(CC3CCC(C(=O)NC(C)C)CC3)c(=O)c3sccc32)cc1` (stereo not drawn), the survival was inactive: 71%. With `CCN1CCN(CCC(=O)Nc2ccc(F)cc2)CC1`, the survival is inactive: 105%. Take `COc1ccc(CCN2CCC(CNC(=O)c3cnn(-c4ccc(C)cc4)c3C3CCN(C(=O)OC(C)(C)C)CC3)CC2)cc1`: the survival is inactive: 140%. With `Cc1ccc(NC(=O)CSc2nc3ccc(Br)cc3[nH]2)c(C)c1`, the survival is inactive: 67%. On to `Cc1ccc(N2CC(C(=O)NCCS(=O)(=O)N3CCN(c4ccccc4F)CC3)CC2=O)cc1` (stereo not drawn), for which the survival was inactive: 99%. On to `Cc1nc2c3ccccc3nc(NNC(=O)CCC(=O)N3CCN(c4cccc(Cl)c4)CC3)n2n1`, for which the survival is inactive: 142%. For the molecule `CCOc1ccc(N(Cc2ccccc2)C(=O)c2nc(SCC)ncc2Cl)cc1`, the survival was inactive: 115%. Turning to `Cc1cccc(NC(=O)CSc2nc3ccccc3nc2N2CCC(C)CC2)c1`, the survival was active: -9%.

`O=C(COc1ccc(F)cc1)Nc1nnc(S(=O)(=O)N2CCc3ccccc32)s1`: the survival was inactive: 22%. On to `CN(C)CCN(C(=O)c1ccco1)c1nc2c(F)cc(F)cc2s1`, for which the survival is inactive: 64%. Then `CC1CCN(C(=O)CSc2c3c(nc4ccc(Cl)cc24)CCCC3)CC1`, with active: -1%; and `CCn1c(CNc2ccc(C)cc2)nnc1SCc1ccccc1`, with inactive: 126%; and `CC1=C(c2ccc(C(C)C)cc2)S(=O)(=O)NC1=NCc1ccccc1C`, with inactive: 82%. Regarding `O=C(Nc1ccc(OC(F)(F)F)cc1)C1CCN(S(=O)(=O)c2ccc3[nH]c(=O)ccc3c2)CC1`, the survival was inactive: 90%.
